In PubChem BioAssay (NCI):
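All cell lines were grown in 96-well plates and treated with compound for 48 hours. The concentration for full growth arrest is given as TGI.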

What was measured:
Experiment in all cases: NCI tumour cell line growth inhibition, 48 h
[1] = system: 786-0 renal
[2] = system: A498 renal
[3] = system: A549 NSCLC
[4] = system: ACHN renal
[5] = system: BT-549 breast
[6] = system: CAKI-1 renal
[7] = system: CCRF-CEM leukemia
[8] = system: COLO 205 colon
[9] = system: DLD-1 colon
[10] = system: DMS 273 small cell lung
[11] = system: DU-145 prostate
[12] = system: EKVX NSCLC
[13] = system: HCC-2998 colon
[14] = system: HCT-116 colon
[15] = system: HCT-15 colon
[16] = system: HL-60(TB) leukemia
[17] = system: HOP-18 NSCLC
[18] = system: HOP-62 NSCLC
[19] = system: HS 578T breast
[20] = system: HT29 colon
[21] = system: IGROV1 ovarian
[22] = system: K-562 leukemia
[23] = system: KM12 colon
[24] = system: KM20L2 colon
[25] = system: LOX IMVI melanoma
[26] = system: LXFL 529 NSCLC
[27] = system: M14 melanoma
[28] = system: M19-MEL melanoma
[29] = system: MALME-3M melanoma
[30] = system: MCF7 breast
[31] = system: MDA-MB-231 breast
[32] = system: MDA-MB-435
[33] = system: MOLT-4 leukemia
[34] = system: NCI-H226 lung
[35] = system: NCI-H23 lung
[36] = system: NCI-H460 lung
[37] = system: NCI-H522 lung
[38] = system: NCI/ADR-RES ovarian
[39] = system: OVCAR-4 ovarian
[40] = system: OVCAR-8 ovarian
[41] = system: PC-3 prostate
[42] = system: RPMI-8226 leukemia
[43] = system: RXF 393 renal
[44] = system: RXF-631 renal
[45] = system: SF-268 CNS
[46] = system: SF-295 CNS
[47] = system: SF-539 CNS
[48] = system: SK-MEL-2 melanoma
[49] = system: SK-MEL-28 melanoma
[50] = system: SN12C renal
[51] = system: SNB-19 CNS
[52] = system: SNB-75 CNS
[53] = system: SNB-78 CNS
[54] = system: SR leukemia
[55] = system: SW-620 colon
[56] = system: T-47D breast
[57] = system: TK-10 renal
[58] = system: U251 CNS
[59] = system: UACC-257 melanoma
[60] = system: UACC-62 melanoma
[61] = system: UO-31 renal
[62] = system: XF 498 CNS

`COc1cc2c(c(OC)c1OC)-c1ccc(SC)c(=O)cc1[C@@H](NC(C)=O)CC2` was tested. Which TGI [1] did it give?
Its TGI is over 100 µM.

What about the TGI [2] of the same molecule?
Its TGI is 3.33 µM.

What about the TGI [3] of the same molecule?
Its TGI is 88.6 µM.

And the TGI [4]?
The TGI was over 100 µM.

And the TGI [5]?
The TGI was over 100 µM.

What about the TGI [6] of the same molecule?
The TGI was over 100 µM.

What about the TGI [7] of the same molecule?
Its TGI is 15.8 µM.

And the TGI [8]?
Its TGI is under 0.01 µM.

What about the TGI [9] of the same molecule?
The TGI was over 100 µM.

And the TGI [10]?
The TGI was over 100 µM.

What about the TGI [11] of the same molecule?
The TGI was 23.9 µM.

What about the TGI [12] of the same molecule?
Its TGI is over 100 µM.

What about the TGI [13] of the same molecule?
Its TGI is 72.9 µM.

What about the TGI [14] of the same molecule?
The TGI was 9.24 µM.

And the TGI [15]?
Its TGI is over 100 µM.

And the TGI [16]?
Its TGI is under 0.01 µM.

And the TGI [17]?
Its TGI is over 100 µM.

What about the TGI [18] of the same molecule?
The TGI was over 100 µM.

And the TGI [19]?
Its TGI is over 100 µM.

What about the TGI [20] of the same molecule?
Its TGI is 4.8 µM.

What about the TGI [21] of the same molecule?
The TGI was 21.5 µM.

And the TGI [22]?
Its TGI is over 100 µM.

What about the TGI [23] of the same molecule?
The TGI was 0.215 µM.

What about the TGI [24] of the same molecule?
Its TGI is under 0.01 µM.

What about the TGI [25] of the same molecule?
The TGI was over 100 µM.

What about the TGI [26] of the same molecule?
Its TGI is over 100 µM.

What about the TGI [27] of the same molecule?
Its TGI is 77.4 µM.

What about the TGI [28] of the same molecule?
The TGI was over 100 µM.

What about the TGI [29] of the same molecule?
The TGI was over 100 µM.

What about the TGI [30] of the same molecule?
Its TGI is over 100 µM.

What about the TGI [31] of the same molecule?
The TGI was 5.72 µM.

And the TGI [32]?
Its TGI is under 0.01 µM.

And the TGI [33]?
Its TGI is 34.4 µM.

What about the TGI [34] of the same molecule?
Its TGI is 2.51 µM.

And the TGI [35]?
The TGI was 0.47 µM.

What about the TGI [36] of the same molecule?
Its TGI is over 100 µM.

And the TGI [37]?
The TGI was under 0.01 µM.

What about the TGI [38] of the same molecule?
The TGI was under 0.01 µM.

And the TGI [39]?
Its TGI is over 100 µM.

What about the TGI [40] of the same molecule?
The TGI was over 100 µM.

What about the TGI [41] of the same molecule?
The TGI was over 100 µM.

And the TGI [42]?
Its TGI is 89.7 µM.

And the TGI [43]?
Its TGI is over 100 µM.

What about the TGI [44] of the same molecule?
Its TGI is 13.3 µM.

And the TGI [45]?
The TGI was over 100 µM.

What about the TGI [46] of the same molecule?
Its TGI is 0.398 µM.

And the TGI [47]?
Its TGI is 0.0464 µM.

And the TGI [48]?
Its TGI is 15.8 µM.

What about the TGI [49] of the same molecule?
Its TGI is over 100 µM.

What about the TGI [50] of the same molecule?
The TGI was over 100 µM.

What about the TGI [51] of the same molecule?
Its TGI is over 100 µM.

What about the TGI [52] of the same molecule?
Its TGI is 13.2 µM.

What about the TGI [53] of the same molecule?
The TGI was over 100 µM.

And the TGI [54]?
Its TGI is over 100 µM.

And the TGI [55]?
The TGI was over 100 µM.

And the TGI [56]?
The TGI was over 100 µM.

What about the TGI [57] of the same molecule?
Its TGI is over 100 µM.

And the TGI [58]?
The TGI was 15.8 µM.

And the TGI [59]?
The TGI was over 100 µM.

What about the TGI [60] of the same molecule?
The TGI was over 100 µM.

What about the TGI [61] of the same molecule?
Its TGI is over 100 µM.

What about the TGI [62] of the same molecule?
Its TGI is 95 µM.
